In article PMC4336329 (PLoS ONE, 2015):
Among all 310,000 compounds or so, about 14,000 (4.5%) showed an effect of 50% or more. Effects have a minus sign here. This is one part of the list.

The compounds below were run against human ether-à-go-go-related gene (hERG) potassium channel (human, UniProt Q12809) (assay: primary screen, population patch clamp on CHO cells stably expressing hERG).
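Also: peak tail current of the secondary pulse compared with the same well before compound.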

Sequence of human ether-à-go-go-related gene (hERG) potassium channel (Q12809 whole entry, looked up): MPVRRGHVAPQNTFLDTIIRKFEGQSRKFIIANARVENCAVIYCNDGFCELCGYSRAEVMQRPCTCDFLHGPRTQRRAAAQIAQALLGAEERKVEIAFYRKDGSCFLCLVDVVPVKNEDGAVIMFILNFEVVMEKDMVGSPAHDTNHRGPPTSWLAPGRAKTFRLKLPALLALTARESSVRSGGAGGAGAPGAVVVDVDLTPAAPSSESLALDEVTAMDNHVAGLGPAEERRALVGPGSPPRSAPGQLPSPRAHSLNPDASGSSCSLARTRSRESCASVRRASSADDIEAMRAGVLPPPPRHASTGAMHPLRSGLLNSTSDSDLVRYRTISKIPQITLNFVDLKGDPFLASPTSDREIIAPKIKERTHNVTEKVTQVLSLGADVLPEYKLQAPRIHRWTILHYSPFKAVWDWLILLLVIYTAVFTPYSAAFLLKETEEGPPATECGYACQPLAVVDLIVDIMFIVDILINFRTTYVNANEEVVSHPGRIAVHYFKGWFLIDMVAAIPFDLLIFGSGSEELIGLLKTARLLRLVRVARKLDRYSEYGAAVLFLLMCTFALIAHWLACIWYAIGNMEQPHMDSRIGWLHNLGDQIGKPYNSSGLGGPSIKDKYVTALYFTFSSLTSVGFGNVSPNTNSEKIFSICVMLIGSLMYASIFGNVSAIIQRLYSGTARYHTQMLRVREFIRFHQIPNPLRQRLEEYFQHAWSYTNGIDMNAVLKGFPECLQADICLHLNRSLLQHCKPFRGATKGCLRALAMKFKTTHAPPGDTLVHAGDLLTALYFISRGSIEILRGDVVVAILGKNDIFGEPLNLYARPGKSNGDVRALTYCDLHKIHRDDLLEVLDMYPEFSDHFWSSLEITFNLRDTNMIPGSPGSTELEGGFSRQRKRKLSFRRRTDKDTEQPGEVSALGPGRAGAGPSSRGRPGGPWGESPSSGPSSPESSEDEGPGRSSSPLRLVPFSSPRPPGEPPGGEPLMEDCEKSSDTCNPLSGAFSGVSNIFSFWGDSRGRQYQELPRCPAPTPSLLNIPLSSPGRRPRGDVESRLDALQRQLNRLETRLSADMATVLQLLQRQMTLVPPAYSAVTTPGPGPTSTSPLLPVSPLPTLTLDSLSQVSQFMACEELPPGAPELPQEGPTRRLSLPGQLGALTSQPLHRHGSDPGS

| SMILES | hERG current change (%, negative = inhibition) at 10uM |
| --- | --- |
| Cc1cc(C(=O)NNC(=O)c2ccccc2[N+](=O)[O-])c(C)o1 | 11.2% |
| CCOc1cc(C)c(Cl)cc1S(=O)(=O)NCCOC | 2.03% |
| COC(=O)C1=C(c2cc3ccccc3o2)C[C@@H]2CC[C@H]1N2C(=O)N1CCCC1 | -6.09% |
| O=C(Cc1ccc([N+](=O)[O-])cc1)Nc1ccc(Cl)cc1 | -0.617% |
| COc1ccc(-c2coc3cc(O)ccc3c2=O)cc1 | -5.05% |
| Cc1cccc(C(=O)N/N=C2\CS(=O)(=O)N(C)c3ccsc32)c1 | -6.06% |
| CC(NC(=O)CCN1C(=O)c2ccccc2C1=O)c1ccccc1 (stereo not shown) | 12.7% |
| O=C(Nc1ccc(Sc2ccc(Br)cc2)cc1)c1ccco1 | 10.4% |
| COC(=O)c1ccc(OC)c(Cn2c(=O)n(C)c(=O)c3sccc32)c1 | 6.47% |
| C=C(C)c1cccc(C(C)(C)NC(=O)Nc2ccc(OC)nc2)c1 | -23.3% |
| COc1ccc(OCC(O)CNC2CCCC2)cc1.Cl (stereo not shown) | 12.8% |
| Cc1cccc(N(CC(=O)NC2CCCCC2)C(=O)CCC(=O)Nc2nccs2)c1 | 21.3% |
| COc1ccc(CN2CCN(CCCc3ccccc3)CC2)c(OC)c1 | -76.6% |
| CCN(C1CCCCC1)S(=O)(=O)c1c(C)n(C)c(=O)n(C)c1=O | -1.47% |
| COc1ccc(-c2cc3c(=O)n(CC(=O)NCCCc4ccccc4)ncn3n2)cc1 | 7.35% |
| COc1ccc(N(CC(=O)Nc2ccc(C(C)C)cc2)S(=O)(=O)c2c(C)noc2C)cc1 | 1.83% |
| CCc1ccccc1NC(=O)c1cc(=O)c2ccccc2o1 | -1.16% |
| O=C(CN1CCC(O)(c2ccc3c(c2)OCO3)CC1)OC1CCCCC1 | -5.98% |
| O=C1NC(=O)c2cc(Br)cc3cccc1c23 | 13.6% |
| CC1CCN(c2cc(N3CCN(C(=O)c4ccc(F)c(F)c4)CC3)c([N+](=O)[O-])cc2F)CC1 | -5.86% |
| O=C(Nc1ccccc1)Nc1nnc(-c2ccccc2)o1 | 5.53% |
| Cl.c1ccc(CCn2nnnc2CN2CCCc3ccccc32)cc1 | -14.7% |
| Cc1cc(N/N=C/c2cccc(F)c2)nc(NCc2ccccc2)n1 | -21.9% |
| CC1(C)C2CC=C(/C=N/NC(=O)c3ccc(Cl)cc3)C1C2 (stereo not shown) | 1.61% |
| Cc1ccc(S(=O)(=O)Oc2ccc(C3C4=C(CCCC4=O)N(CCC(=O)O)C4=C3C(=O)CCC4)cc2Cl)cc1 | 0.796% |
